# Source: PubChem BioAssay (NCI)
#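 Exposure lasted 48 hours, with cells grown in 96-well plates and compounds tested at five concentrations. At the GI50, growth is halved. At the TGI there is no net growth.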
# Test system: NCI-H322M lung
# Assay: growth of human tumour cells (NCI), 48 h
structure (smiles),measurement,value
O=C(c1ccccc1)n1ccc(-c2cc3cc(Br)ccc3oc2=O)n1,GI50,4.51 µM
same,TGI,> 100 µM
